This is an account of results in the supplement of paper PMC11741623.

First the molecules themselves.
B1: ARF3, P61204 (protein)
chain: MGNIFGNLLKSLIGKKEMRILMVGLDAAGKTTILYKLKLGEIVTTIPTIGFNVETVEYKNISFTVWDVGGQDKIRPLWRHYFQNTQGLIFVVDSNDRERVNEAREELMRMLAEDELRDAVLLVFANKQDLPNAMNAAEITDKLGLHSLRHRNWYIQATCATSGDGLYEGLDWLANQLKNKK
B2: ARMCX1, Q9P291 (protein)
chain: MGRTREAGCVAAGVVIGAGACYCVYRLAWGRDENEKIWDEDEESTDTSEIGVETVKGAKTNAGAGSGAKLQGDSEVKPEVSLGLEDCPGVKEKAHSGSHSGGGLEAKAKALFNTLKEQASAKAGKGARVGTISGNRTLAPSLPCPGGRGGGCHPTRSGSRAGGRASGKSKGKARSKSTRAPATTWPVRRGKFNFPYKIDDILSAPDLQKVLNILERTNDPFIQEVALVTLGNNAAYSFNQNAIRELGGVPIIAKLIKTKDPIIREKTYNALNNLSVNAENQGKIKTYISQVCDDTMVCRLDSAVQMAGLRLLTNMTVTNHYQHLLSYSFPDFFALLFLGNHFTKIQIMKLIINFTENPAMTRELVSCKVPSELISLFNKEWDREILLNILTLFENINDNIKNEGLASSRKEFSRSSLFFLFKESGVCVKKIKALANHNDLVVKVKVLKVLTKL

Some of the results follow. Interaction screen of human proteins with wild-type SARS-CoV-2 proteins by split-DHFR complementation in yeast, 1 µg/mL methotrexate. Value = fitness of the pair (three or more lineages) minus that of the viral protein without a human partner, on a scale set by negative (0) and fused positive (1) controls, mean of up to three cultures; higher = more likely to interact. Active = false discovery rate below 0.05 (one-sided t-test) in at least one culture. Nearly all pairs are not hits, and differences among them are mostly noise (correlation between cultures about 0.3); most hits were seen in one culture only. Human sequences are the Swiss-Prot entries looked up by gene name; the clone may be another isoform. NSP2 values were corrected by the authors for a growth advantage. Listed are human proteins with a hit and a random twelfth of the others.

The target in one assay is SARS-CoV-2 E. The experiment in a line: yeast fitness gain over the viral ORF with no human partner (scaled fitness); higher = more likely to interact. As to the method: (§1)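 Split mouse DHFR complementation in pooled diploid yeast: human ORFeome clones carry one fragment and viral ORFs the other; barcoded lineages compete in 1 µg/mL methotrexate and fitness is read by barcode sequencing in up to three cultures.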
As to B1, the yeast fitness gain was inactive: 0.0743.
Still for that read-out and setting: in the case of B2 it was inactive: 0.0392.

For another assay, the target named is SARS-CoV-2 M. The assay is described as above. As to the method:
as §1
Regarding B1, the yeast fitness gain is inactive: -0.0201.
On the same count and under the same terms, in the case of B2 it was inactive: -0.0124.

The next assay has as its target SARS-CoV-2 N. The description is as above. As to the method: as §1
Turning to B1, the yeast fitness gain is inactive: 0.0715.

A further assay has as its target SARS-CoV-2 NSP1. Described as above. As to the method:
as §1
With B1, the yeast fitness gain was inactive: 0.103.
Same read-out and setting: for B2 the value was inactive: 0.0315.

For the next assay, the target named is SARS-CoV-2 NSP10. The description is as above. As to the method:
as §1
B1: the yeast fitness gain is inactive: 0.039.
Same read-out and setting: in the case of B2 it was inactive: -0.0728.

The target in a further assay is SARS-CoV-2 NSP12. The assay is described as above. As to the method:
as §1
With B1, the yeast fitness gain is inactive: 0.00162.
On the same count and under the same terms, in the case of B2 it was inactive: 0.0792.

The next assay concerns the target SARS-CoV-2 NSP13. Described as above. As to the method: as §1
For the molecule B1, the yeast fitness gain was inactive: 0.0021.
On the same count and under the same terms, in the case of B2 it was inactive: -0.0122.

In a further assay the target is SARS-CoV-2 NSP14. The description is as above. Here is the method:
as §1
For B1, the yeast fitness gain is inactive: -0.267.

A further assay has as its target SARS-CoV-2 NSP15. The description is as above. As to the method:
as §1
As for B1, the yeast fitness gain is inactive: -0.163.

For a further assay, the target named is SARS-CoV-2 NSP16. The description is as above. Here is the method:
as §1
As for B1, the yeast fitness gain was inactive: 0.0502.

A further assay concerns the target SARS-CoV-2 NSP2. The description is as above. As to the method: as §1
On to B1, for which the yeast fitness gain was active: 0.207.
Same read-out and setting: in the case of B2 it was inactive: -0.205.

The target in the next assay is SARS-CoV-2 NSP4. The assay is described as above. As to the method: as §1
In the case of B1, the yeast fitness gain is inactive: -0.118.

Another assay concerns the target SARS-CoV-2 NSP5. The description is as above. Here is the method:
as §1
With B1, the yeast fitness gain is inactive: 0.0572.
With B2, the yeast fitness gain was inactive: -0.0264.

The target in another assay is SARS-CoV-2 NSP6. The description is as above. As to the method: as §1
Take B1: the yeast fitness gain was inactive: 0.0856.
On the same count and under the same terms, for B2 the value was inactive: 0.0611.

In a further assay the target is SARS-CoV-2 NSP7. The description is as above. As to the method:
as §1
Regarding B1, the yeast fitness gain is inactive: 0.0164.
Still for that read-out and setting: for B2 the value was inactive: 0.0892.

Another assay concerns the target SARS-CoV-2 NSP8. The assay is described as above. Here is the method:
as §1
Consider B1, for which the yeast fitness gain was inactive: -0.0133.
The same measure, in the same setting: for B2 the value was inactive: -0.00483.

The target of a further assay is SARS-CoV-2 NSP9. The assay is described as above. Here is the method: as §1
As for B1, the yeast fitness gain is inactive: -0.00402.
Still for that read-out and setting: in the case of B2 it was inactive: 0.0457.

The next assay has as its target SARS-CoV-2 ORF10. The assay is described as above. Here is the method:
as §1
Turning to B1, the yeast fitness gain is inactive: 0.0244.
As to B2, the yeast fitness gain was inactive: -0.0295.

The target in the next assay is SARS-CoV-2 ORF3A. The description is as above. Here is the method: as §1
Consider B1, for which the yeast fitness gain is inactive: 0.0959.
On the same count and under the same terms, in the case of B2 it was inactive: 0.0177.

In another assay the target is SARS-CoV-2 ORF3B. Described as above. Here is the method:
as §1
Regarding B1, the yeast fitness gain is inactive: 0.0124.
The same measure, in the same setting: for B2 the value was inactive: -0.0728.

Another assay deals with SARS-CoV-2 ORF6. The description is as above. As to the method: as §1
In the case of B1, the yeast fitness gain was inactive: 0.0164.
Same read-out and setting: in the case of B2 it was inactive: 0.0343.

In the next assay the target is SARS-CoV-2 ORF7A. The description is as above. Here is the method: as §1
In the case of B1, the yeast fitness gain was inactive: 0.0654.

Another assay addresses SARS-CoV-2 ORF7B. The assay is described as above. As to the method:
as §1
As to B1, the yeast fitness gain was inactive: 0.13.
Same read-out and setting: in the case of B2 it was inactive: 0.0824.

Another assay deals with SARS-CoV-2 ORF8. The description is as above. As to the method: as §1
On to B1, for which the yeast fitness gain was inactive: -0.0549.
On the same count and under the same terms, in the case of B2 it was inactive: 0.0831.

The next assay addresses SARS-CoV-2 ORF9B. The description is as above. As to the method: as §1
As to B1, the yeast fitness gain was inactive: 0.0653.
Still for that read-out and setting: for B2 the value was inactive: -0.0159.

A further assay addresses SARS-CoV-2 ORF9Bwu (the 73-codon ORF). The assay is described as above. As to the method:
as §1
On to B1, for which the yeast fitness gain was inactive: 0.0441.
The same measure, in the same setting: in the case of B2 it was inactive: 0.0245.

A further assay has as its target SARS-CoV-2 S. The description is as above. Here is the method: as §1
In the case of B1, the yeast fitness gain is inactive: -0.0596.
On the same count and under the same terms, for B2 the value was inactive: -0.00537.
